# According to PubChem BioAssay AID2147 (National Center for Advancing Translational Sciences (NCATS), 2009):
# Values joined by “and” are separate entries in the source; they are usually repeats but may differ in a detail not shown here. Identical values can stand only once. Among all 230,000 compounds or so, about 3,600 (1.6%) were called active. Inconclusive results, whose numbers are uncertain, are shown with a selection of clear calls. The call rests on the fitted dose curve; in most records, active means well fitted inhibition curve with a large enough effect (not every such curve was filed as active); inconclusive means small, poorly fitted or top-dose-only effect, or another doubt; inactive means no such curve, though single readings can be large or run the other way. Potencies of inconclusive entries are doubtful fits and often do not repeat.
# Molecular target: Lysine-specific demethylase 4E (Homo sapiens) (UniProt B2RXH2)
# UniProt B2RXH2, sequence (B2RXH2 whole entry, looked up, the tested form may be a part): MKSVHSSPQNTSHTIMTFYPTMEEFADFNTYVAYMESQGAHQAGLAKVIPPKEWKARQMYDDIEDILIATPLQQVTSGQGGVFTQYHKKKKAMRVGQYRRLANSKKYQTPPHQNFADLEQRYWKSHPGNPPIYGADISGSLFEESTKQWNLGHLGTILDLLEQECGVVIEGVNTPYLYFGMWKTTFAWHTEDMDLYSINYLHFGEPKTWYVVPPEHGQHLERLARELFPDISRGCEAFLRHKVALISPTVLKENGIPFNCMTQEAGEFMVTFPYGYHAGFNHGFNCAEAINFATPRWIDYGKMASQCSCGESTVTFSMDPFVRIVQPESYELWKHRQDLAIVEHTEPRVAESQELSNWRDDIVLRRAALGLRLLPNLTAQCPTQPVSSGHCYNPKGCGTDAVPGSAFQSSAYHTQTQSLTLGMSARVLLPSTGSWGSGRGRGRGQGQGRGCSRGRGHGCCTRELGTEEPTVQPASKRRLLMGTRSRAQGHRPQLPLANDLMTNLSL
# Assay: qHTS Assay for Inhibitors of Human Jumonji Domain Containing 2E (JMJD2E)
# Conditions: JMJD2E catalytic domain, FDH-coupled NADH fluorescence (FDH is formaldehyde dehydrogenase); series mostly up to 57.1 µM; activity change, negative = inhibition: at the top concentration
# Further: nearly all actives have a fitted effect of over 50% in size.
# Potency means the concentration at half of the fitted maximal effect; tags describe the fitted curve by direction and shape.
# 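Wherever activity change, negative = inhibition is given: 0% = wells with enzyme and -100% = buffer wells without enzyme.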
Structure (SMILES),Potency,"activity change, negative = inhibition"
CCC(C)(C)n1nnnc1C(c1cc2cc(C)cc(C)c2[nH]c1=O)N1CCN(C(=O)c2ccco2)CC1 (centres undefined),"inconclusive: 28.2 µM [inhibitor, single point]",–
CCCCn1c2nc3ccccc3nc2c2c(=O)n(C(C)CC)cnc21 (centres undefined),"inconclusive: 3.16 µM [inhibitor, full curve]",–
Clc1ccc(-c2nc3ccccn3c2CN2CCCCC2)cc1,"inconclusive: 39.8 µM [inhibitor, single point]",–
COc1ccc(CCNC(=O)CCSc2nc(-c3ccco3)cc(C(F)(F)F)n2)cc1OC,"inconclusive: 39.8 µM [inhibitor, single point]",–
Clc1ccc2nc(CSc3nnc4ccccn34)cn2c1,"inconclusive: 39.8 µM [inhibitor, single point]",–
CCN(CC)CCCNC(=S)N(Cc1cccnc1)Cc1cc2cc(C)ccc2[nH]c1=O,"inconclusive: 31.6 µM [inhibitor, partial curve]",–
CCOc1ccc(-n2nnc3c(=O)n(C/C=C/c4ccccc4)cnc32)cc1,–,inactive: 3.42%
CCCNc1nc2ccccc2c(=O)[nH]1,"inconclusive: 35.5 µM [inhibitor, partial curve]",–
CN(C)CCN(Cc1ccccc1)c1nccc(N(C)C)c1C#N,"inconclusive: 28.2 µM [inhibitor, partial curve]",–
C=CCn1c(SCC(=O)Nc2ccc(-c3nc4ccc(C)cc4s3)cc2)nnc1-c1ccccc1,"inconclusive: 25.1 µM [inhibitor, partial curve]",–
COCCN(C(=O)c1ccco1)c1nnc(-c2ccc(OC)cc2)s1,"inconclusive: 35.5 µM [inhibitor, single point]",–
CCCn1c(SCC(=O)c2ccc3c(c2)OCCO3)n[nH]c1=O,–,inactive: -2.82%
CCCOCc1ccc(O)c2ncccc12,active: 14.1 µM,–
O=c1c2c([nH]c3ccccc13)CCCC2,"inconclusive: 25.1 µM [inhibitor, single point]",–
Cc1cccc(-c2nnc(NC(=O)c3ccc(N4C(=O)CCC4=O)cc3)s2)c1,"inconclusive: 35.5 µM [inhibitor, single point]",–
CCc1nnc(NC(=O)CSc2ccc(-c3ccccc3OC)nn2)s1,–,inactive: 2.16%
COc1ccc(-c2c(C#N)c(SCC(=O)c3cc4ccccc4oc3=O)nc(C)c2C(=O)Nc2ccccc2)cc1,"inconclusive: 25.1 µM [inhibitor, single point]",–
COc1ccc2[nH]c(C(=O)N(Cc3ccccn3)Cc3ccccn3)cc2c1,"inconclusive: 31.6 µM [inhibitor, partial curve]",–
CCC(c1nnnn1C1CCCC1)N1CCN(Cc2ccccc2)CC1 (centres undefined),–,inactive: -2.42%
N#Cc1c(-c2ccc(F)cc2)ccnc1N1CCOCC1,"inconclusive: 31.6 µM [inhibitor, single point]",–
CCO/C=C1\C(=O)N(c2ccccc2)C(=O)c2ccccc21,"inconclusive: 28.2 µM [inhibitor, single point]",–
COc1ccc2cc(-c3nc4ccccc4n3C)c(=O)oc2c1,"inconclusive: 14.1 µM [inhibitor, partial curve]",–
N#C/C(=C\c1cn(Cc2ccc(C#N)cc2)c2ccccc12)C(=O)NCc1cccs1,–,inactive: 12.4%

Structure (SMILES),Potency,"activity change, negative = inhibition"
COc1ccc2cc(C(=O)NCCO)sc(=O)c2c1OC,"inconclusive: 39.8 µM [inhibitor, single point]",–
CCOC(=O)C1CCCN(CC(=O)Nc2c(C(=O)OC)[nH]c3ccc(Cl)cc23)C1 (centres undefined),"inconclusive: 28.2 µM [inhibitor, partial curve]",–
CC(C)(C)C(=O)Nc1sc2c(c1C(=O)Nc1ccccn1)CCCC2,"inconclusive: 31.6 µM [inhibitor, single point]",–
COC(=O)c1ccc(NC(=O)CCN2CCN(Cc3ccccc3)CC2)cc1,–,inactive: 1.91%
COc1cc2c(cc1OC)CN(CC(=O)NC(=O)NC1CCCCC1)CC2,"inconclusive: 28.2 µM [inhibitor, single point]",–
CCn1c(-c2cccnc2Cl)nc2cc(Cl)c(Cl)cc21,"inconclusive: 35.5 µM [inhibitor, single point]",–
Cc1coc(NC(=O)CSc2nc(-c3ccncc3)cc(C(F)(F)F)c2C#N)n1,"inconclusive: 39.8 µM [inhibitor, single point]",–
CC(C)c1nc2ccccn2c1NC1CCCCC1,"inconclusive: 28.2 µM [inhibitor, partial curve]",–
CCOC(=O)C(CC)Sc1ccc2nnc(-c3cccnc3)n2n1 (centres undefined),"inconclusive: 25.1 µM [inhibitor, partial curve]",–
Cc1ccc(CNc2ccc3c(c2)ncn3C(C)C)cc1,"inconclusive: 31.6 µM [inhibitor, partial curve]",–
Cc1cc(C)nc(SCC(=O)NC2=NC(=O)C(C)S2)n1 (centres undefined),–,inactive: 2.52%
COc1ccccc1NC(=S)NC(=O)/C=C/c1ccco1,"inconclusive: 39.8 µM [inhibitor, single point]",–
CC(NC1CCCC1)C(=O)Nc1ccccc1-c1ccccc1 (centres undefined),–,inactive: -29.3%
C=CCNC(=S)NNC(=O)c1cccn(Cc2ccc(Cl)c(Cl)c2)c1=O,"inconclusive: 39.8 µM [inhibitor, single point]",–
CCCCN(CCCC)S(=O)(=O)c1ccc(C(=O)Nc2nnc(CSC)o2)cc1,"inconclusive: 31.6 µM [inhibitor, single point]",–
CCOC(=O)c1ccc(CC(=O)c2oc3cc(O)ccc3c2C)o1,"inconclusive: 28.2 µM [inhibitor, partial curve]",–
O=C(Nc1ccccc1-c1nnc(SCc2ccc(Cl)cc2Cl)o1)c1ccccc1,"inconclusive: 35.5 µM [inhibitor, single point]",–
CCOc1cc(/C=C2\CCC/C(=C\c3cc(Cl)c(O)c(OCC)c3)C2=O)cc(Cl)c1O,–,inactive: -5.66%
CCCS(=O)(=O)c1c(S(=O)(=O)CCC)c2c(C)cccn2c1C(=O)OC,"inconclusive: 39.8 µM [inhibitor, single point]",–
O=C(OCC(=O)N(Cc1ccccc1)C1CCS(=O)(=O)C1)c1cc2c(s1)CCCC2 (centres undefined),"inconclusive: 20 µM [inhibitor, partial curve, poor fit]",–
CC1(C)CC1C(=O)Nc1ccc([N+](=O)[O-])cc1Br (centres undefined),–,inactive: -4.27%
CCOc1cc(C2C(C(=O)N3CCOCC3)=C(C)NC3=C2C(=O)CCC3)ccc1O (centres undefined),"inconclusive: 28.2 µM [inhibitor, single point]",–
O=C(Oc1cccnc1)c1cccc(Cl)c1,"inconclusive: 39.8 µM [inhibitor, single point]",–

Structure (SMILES),Potency,"activity change, negative = inhibition"
CC[n+]1ccc(C)c2cc(SC(F)(F)F)ccc21,"inconclusive: 31.6 µM [inhibitor, partial curve]",–
COc1ccc(-c2noc(CSc3nc(-c4ccccc4)cc(=O)[nH]3)n2)cc1,"inconclusive: 28.2 µM [inhibitor, single point]",–
CCCn1c(SCC(=O)N2CCN(c3ccc(OC)cc3)CC2)nc2c1c(=O)n(C)c(=O)n2C,–,inactive: -2.35%
CCOc1ccc(N(CC(=O)NCC2CCCO2)C(=O)CCC(=O)Nc2nccs2)cc1 (centres undefined),"inconclusive: 39.8 µM [inhibitor, single point]",–
CCn1cc(C(=O)NCc2ccc3c(c2)OCO3)c(=O)c2cc(F)c(N3CCN(C)CC3)cc21,"inconclusive: 20 µM [inhibitor, partial curve]",–
O=C(NCC1COc2ccccc2O1)C1(c2ccccc2)CCCC1 (centres undefined),"inconclusive: 0.447 µM [inhibitor, full curve]",–
CSc1ccc(Cn2nnc(C(=O)Nc3ccc(C)c(C)c3)c2N)cc1,"inconclusive: 28.2 µM [inhibitor, single point]",–
CNS(=O)(=O)c1ccc(NC(=S)Nc2ccc3c(c2)OCO3)cc1,–,inactive: 2.41%
COc1ccc(-n2c(=O)c3c4c(sc3n3c(=S)[nH]nc23)CCCC4)cc1,"inconclusive: 1.26 µM [inhibitor, full curve]",–
CCN(CC)C(=O)C1CCCN(Cc2sccc2C)C1 (centres undefined),"inconclusive: 28.2 µM [inhibitor, single point]",–
CC1CCN(C(=O)c2cc(-c3ccccc3O)on2)CC1,–,inactive: 2.87%
COC(=O)c1ccc2c(=O)n(CC3CCCO3)c(SCC(=O)Nc3ccc(OC)cc3OC)nc2c1 (centres undefined),–,inactive: -0.246%
O=C(CN(c1ccccn1)S(=O)(=O)c1ccc(F)cc1)Nc1ccc(F)cc1F,"inconclusive: 28.2 µM [inhibitor, partial curve]",–
Cc1occc1-c1nnc(SCC(=O)c2ccc(F)cc2)o1,–,inactive: -0.914%
Cc1cc(C)nc(N2CCC(C(=O)O)CC2)n1,"inconclusive: 35.5 µM [inhibitor, partial curve]",–
CCn1nc(C)cc1C(=O)N1CCc2c([nH]c3ccccc23)C1c1cc(F)ccc1F (centres undefined),"inconclusive: 25.1 µM [inhibitor, single point]",–
CCOC(=O)CSc1nc2sc3c(c2c(=O)n1C1CCCCC1)CCN(C)C3,"inconclusive: 5.62 µM [inhibitor, single point]",–
O=C(NC(=S)Nc1cccc2cccnc12)c1cccs1,–,inactive: -5.2%
COc1ccc2nc3c(c(-c4ccccc4)c2c1)CCC3,"inconclusive: 31.6 µM [inhibitor, partial curve] and inconclusive: 28.2 µM [inhibitor, partial curve]",–
CCOc1ccccc1N1CCN(Cc2cccc(OC)c2O)CC1,–,inactive: 1.19%
O=C(c1cccc(F)c1)N1CCc2ccccc2C1,–,inactive: -1.96%
CN(C)S(=O)(=O)c1cccc(-c2nnc(SCC(=O)NCCCCCC(=O)O)n2-c2ccc(F)cc2)c1,"inconclusive: 28.2 µM [inhibitor, partial curve]",–
Cc1ccc(-n2c(-c3cnccn3)n[nH]c2=S)cc1,–,inactive: -0.532%
